Test results published in PubChem BioAssay AID504332 (National Center for Advancing Translational Sciences (NCATS), 2011).
The whole screen tested about 350,000 compounds, of which about 31,000 (8.9%) were called active. Inconclusive means that the source gave no clear call. Such entries were picked first, then a sample of the others. Calls follow the shape of the dose curve; as a rule, active = well fitted inhibition curve with a large enough effect; inconclusive = small, poorly fitted or top-dose-only effect; inactive = no such curve, though single readings can be large or run the other way. Where the call is inconclusive, the potency comes from a doubtful curve fit.

Target: Histone-lysine N-methyltransferase EHMT2 (Homo sapiens) (UniProt Q96KQ7)
Assay: qHTS Assay for Inhibitors of Histone Lysine Methyltransferase G9a; also: nearly all actives have a fitted effect of over 75% in size
Details: G9a H3K9 monomethylation, AlphaScreen, 2 h; activity, negative = inhibition: at 59 µM (top of the series) unless noted
In short: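 G9a (20 nM) preincubated 15 min RT with compounds, then 500 nM biotinylated H3K9 peptide and 20 uM SAM added; 2 h RT reaction. Monomethyl-H3K9 product detected by AlphaScreen with anti-H3K9me1 antibody, streptavidin donor and anti-rabbit IgG acceptor beads.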
% is scaled to controls: 0 for no effect and ±100 for the full control effect; potency is read from the fitted curve at half-maximal effect; tags tell the direction and shape of the fitted curve.

Sequence of UniProt Q96KQ7 (Q96KQ7 whole entry, looked up): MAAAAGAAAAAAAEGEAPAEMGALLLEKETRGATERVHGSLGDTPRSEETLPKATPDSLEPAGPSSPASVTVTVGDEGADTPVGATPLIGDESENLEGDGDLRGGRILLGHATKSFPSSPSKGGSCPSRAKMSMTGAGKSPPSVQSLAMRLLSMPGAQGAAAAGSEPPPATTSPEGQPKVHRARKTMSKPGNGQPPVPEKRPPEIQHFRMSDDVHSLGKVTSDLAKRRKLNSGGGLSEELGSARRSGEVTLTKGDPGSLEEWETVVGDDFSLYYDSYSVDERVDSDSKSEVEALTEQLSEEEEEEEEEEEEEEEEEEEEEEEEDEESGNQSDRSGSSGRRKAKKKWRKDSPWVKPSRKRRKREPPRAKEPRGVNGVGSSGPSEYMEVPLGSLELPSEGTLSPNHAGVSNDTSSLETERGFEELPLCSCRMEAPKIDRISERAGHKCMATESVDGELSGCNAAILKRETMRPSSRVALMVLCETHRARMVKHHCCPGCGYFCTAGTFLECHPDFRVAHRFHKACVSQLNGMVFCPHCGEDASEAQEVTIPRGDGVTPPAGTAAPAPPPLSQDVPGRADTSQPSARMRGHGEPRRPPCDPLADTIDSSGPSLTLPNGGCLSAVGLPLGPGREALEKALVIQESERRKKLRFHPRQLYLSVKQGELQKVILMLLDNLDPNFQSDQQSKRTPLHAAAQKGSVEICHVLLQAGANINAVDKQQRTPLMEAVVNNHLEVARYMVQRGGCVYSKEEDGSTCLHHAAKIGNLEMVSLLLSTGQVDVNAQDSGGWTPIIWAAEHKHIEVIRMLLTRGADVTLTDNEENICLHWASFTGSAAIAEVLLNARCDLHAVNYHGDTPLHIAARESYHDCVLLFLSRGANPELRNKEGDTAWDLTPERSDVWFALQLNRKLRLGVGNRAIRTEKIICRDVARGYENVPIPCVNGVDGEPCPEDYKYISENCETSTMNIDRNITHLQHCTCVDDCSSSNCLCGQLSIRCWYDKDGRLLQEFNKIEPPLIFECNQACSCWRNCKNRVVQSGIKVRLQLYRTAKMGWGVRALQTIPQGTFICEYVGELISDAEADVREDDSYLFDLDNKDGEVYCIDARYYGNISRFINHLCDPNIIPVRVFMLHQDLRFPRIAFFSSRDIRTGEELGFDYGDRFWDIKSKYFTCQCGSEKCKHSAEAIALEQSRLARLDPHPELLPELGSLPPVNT

SMILES	activity, negative = inhibition	Potency
Cc1cccc(NC(=O)c2cc3c([nH]c2=O)CC(c2ccccc2)CC3=O)c1 (stereo not given)	inactive: 6.59%	–
Cc1c(NC(=O)COC(=O)c2c3c(nc4ccccc24)CCCC3)c(=O)n(-c2ccccc2)n1C	inactive: 23.8%	–
CNC(=O)C1CC(=O)N(c2ccc(F)c(Cl)c2)C1 (stereo not given)	inactive: 6.47% [at 0.501 µM]	–
CC1Cc2ccccc2N1C(=O)Cn1c(=O)oc2cc(S(=O)(=O)NC3CCCC3)ccc21 (stereo not given)	–	inconclusive: 14.1 µM [inhibitor, partial curve]
Nn1c(CSc2ccccn2)nc2ccccc2c1=O	–	active: 39.8 µM
O=C(CSc1nc2ccsc2c(=O)n1-c1ccc(Br)cc1)NCc1ccc(Cl)cc1	–	inconclusive: 7.08 µM [inhibitor, single point]
CCOc1ccccc1NC(=O)CSc1nnc(-c2ccco2)n1Cc1ccco1	–	active: 17.8 µM
CCNC(=S)NNc1nc(N2CCCCC2)nc(N2CCOCC2)n1	–	inconclusive: 0.562 µM [inhibitor, full curve, poor fit]
N#Cc1cccc(NC(=O)COC(=O)c2ccccc2Sc2ccccc2C#N)c1	–	inconclusive: 89.1 µM [inhibitor, single point]
O=C(COc1ccccc1)Nc1nc2ccccc2[nH]1	–	inconclusive: 31.6 µM [inhibitor, partial curve, poor fit]
COc1ccc(-c2nc(-c3cccs3)c(-c3cccs3)[nH]2)cc1O	inconclusive: -93.8% [inhibitor]	–
CCOc1ccccc1OCCCC(=O)Nc1nc2ccccc2[nH]1	inactive: 5.95% [at 102 µM]	–
COc1ccc(S(=O)(=O)N(Cc2ccccc2)c2ccccc2C(=O)O)cc1	–	inconclusive: 89.1 µM [inhibitor, single point]
O=C1c2ccccc2C(=O)N1CN(C(=O)COc1ccccc1)c1ccccc1	inactive: 0.866%	–
Nn1c(COc2cccc(Cl)c2)nc2ccccc2c1=O	inactive: 11.3%	–
CC(=O)NC(Cc1ccc(F)cc1)C(=O)NC1CCN(C(=O)NCc2ccccc2)CC1 (stereo not given)	inactive: 5.22% [at 102 µM]	–
CCOc1cc(/C=N/N=C2/NC(=O)C(CC(=O)O)S2)ccc1OCc1ccccc1Cl (stereo not given)	–	inconclusive: 89.1 µM [inhibitor, single point]
CN(Cc1ccc(-n2cccn2)cc1)C(=O)c1cnn2c1NC(c1ccco1)CC2C(F)(F)F (stereo not given)	–	inconclusive: 22.4 µM [inhibitor, partial curve, poor fit]
CCCCCC1CC(CC(=O)O)C(=O)O1 (stereo not given)	inactive: 0.964%	–
Cc1cc(N2CCN(C)CC2)nc2ccc(NC(=S)NCCCN3CCN(C)CC3)cc12	–	inconclusive: 44.7 µM [inhibitor, partial curve]
